This is an account of results in PubChem BioAssay AID743262 (National Center for Advancing Translational Sciences (NCATS), 2014).

In all, about 1,300 compounds went through this assay and about 25 (2%) were called active. Roughly 9% stayed inconclusive and do not appear here. The call rests on the fitted dose curve; in most records, active means well fitted activation curve with a large enough effect; inconclusive means small, poorly fitted or top-dose-only effect; inactive means flat fitted curve, though single readings scatter. The list shows a part of the results.
Potency means the concentration at half of the fitted maximal effect.

Sequence of UniProt P43220 (P43220 whole entry, looked up): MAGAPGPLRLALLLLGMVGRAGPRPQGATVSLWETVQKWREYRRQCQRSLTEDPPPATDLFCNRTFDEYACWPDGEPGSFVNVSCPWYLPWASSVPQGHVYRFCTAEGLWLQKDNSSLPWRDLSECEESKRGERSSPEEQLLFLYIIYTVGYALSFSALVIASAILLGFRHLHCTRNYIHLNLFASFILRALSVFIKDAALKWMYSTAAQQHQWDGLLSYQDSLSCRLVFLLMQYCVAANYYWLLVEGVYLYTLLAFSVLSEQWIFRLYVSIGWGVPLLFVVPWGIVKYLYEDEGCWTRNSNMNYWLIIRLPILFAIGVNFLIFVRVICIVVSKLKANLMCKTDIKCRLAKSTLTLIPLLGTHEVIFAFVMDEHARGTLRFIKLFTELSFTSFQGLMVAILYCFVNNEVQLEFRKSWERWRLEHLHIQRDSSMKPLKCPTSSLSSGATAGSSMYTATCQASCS

The target in the experiment is Glucagon-like peptide 1 receptor (Homo sapiens) (UniProt P43220). The experiment can be described thus: qHTS of GLP-1 Receptor Agonists: Hit Validation. On activation: % of control where 0% means no effect. The following applies: HEK293 GLP-1R, cAMP-response luciferase, 4-6 h; series mostly up to 46.1 µM; activation: at the top concentration. An outline of the steps:
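HEK293 cells stably co-expressing a cAMP-responsive luciferase reporter and GLP-1R (hypersensitive receptor for weak agonists; wild-type line for confirmation) were plated 12 h at 37 °C, exposed to compound 4-6 h, then read by luminescence after 12 min detection reagent.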
On to `CCOc1ccc(C(=O)Nc2ccncc2)cc1`, for which the “activation” value was inactive: -0.776%.

For the molecule `COc1ccc(C(=O)N2CCCC(c3ccccc3)C2)cc1` (stereo not given), the “activation” value is inactive: -0.361%.

As to `CC(CCc1ccco1)NC(=O)c1cccc2c1C(=O)N(C1CCCCC1)C2` (stereo not given), the “activation” value was inactive: 6.34%.

Take `COc1ccc(C(C)=O)cc1COC(=O)c1ccc(C)c(S(=O)(=O)N2CCOCC2)c1`: the “activation” value was inactive: 5.7%.

With `C=CCc1ccc(OCCOc2cccc3ccc(C)nc23)c(OC)c1`, the “activation” value is inactive: 4.18%.

As to `COc1ccc2c(c1)oc(=O)c1ccccc12`, the “activation” value was inactive: 6.5%.

On to `Cc1nc(N2CCN(c3ccccn3)CC2)c2c(C)c(C(=O)N3CCN(c4cccc(Cl)c4)CC3)sc2n1`, for which the “activation” value is inactive: 0.254%.

Regarding `O=C(OCCOc1ccccc1Cl)c1ccc(-n2cnnn2)cc1`, the “activation” value is inactive: 7.11%.

Turning to `FC(F)(F)c1cccc(N2CCc3cn[nH]c32)c1`, the “activation” value is inactive: 3.12%.

With `COc1ccc(OC)c(NC(=O)C2(C)CCN2Cc2ccc(SC)cc2)c1` (stereo not given), the “activation” value was inactive: 2.52%.

In the case of `CC(C)C(=O)c1c(C(C)C)nn2ccccc12`, the “activation” value is inactive: 4.75%.

`COc1ccc(-c2nnc(-c3cccnc3)o2)cc1OC`: the “activation” value was inactive: 2.98%.

Regarding `COc1ccc(N2C[C@H](CSC)[C@@H](CC(=O)Nc3ccccc3)C2=O)cc1`, the “activation” value is inactive: -0.4%.

As for `COc1ccc(C)cc1N(C(=O)c1snc(C(N)=O)c1N)C(C(=O)NC1CCCCC1)c1ccc(C)o1` (stereo not given), the “activation” value is inactive: -0.356%.

For the molecule `c1ccc(Oc2ncnc3sccc23)cc1`, the “activation” value was inactive: 2.76%.

In the case of `O=C(CCCl)Nc1nc2c(s1)CCc1ccccc1-2`, the “activation” value is inactive: 7.9%.

For the molecule `Cc1ccccc1Cn1nc(C)c(NC(=O)/C=C/c2cnn(C)c2)c1C`, the “activation” value is inactive: -0.834%.

Turning to `c1csc(-c2ccc3ccccc3n2)c1`, the “activation” value is inactive: -0.411%.

For `COCCNc1nc(Nc2ccc(C)cc2C)c2sccc2n1`, the Potency is active: 9.2 µM.

`Cc1cccc(Nc2nc3c(c(=O)n(C)c(=O)n3C)n2Cc2ccccc2)c1`: the “activation” value is inactive: 1.5%.

`CCOC(=O)c1sc2nc(N3CCOCC3)c3c(c2c1N)CCC3`: the “activation” value is inactive: 7.48%.

Take `O=C(CO)[C@@H](O)[C@H](O)[C@@H](O)C(=O)O`: the “activation” value is inactive: -0.423%.

Regarding `COc1cc2c(cc1OC)CN(c1ncccc1[N+](=O)[O-])CC2`, the “activation” value was inactive: 7.74%.

Consider `O=[N+]([O-])c1cc(S(=O)(=O)C(F)(F)F)ccc1N1CCN(c2ccccc2)CC1`, for which the “activation” value is inactive: -0.414%.

With `O=C(CSc1nnc(-c2ccccc2Br)o1)N1CCc2ccccc2C1`, the “activation” value is inactive: 3.85%.

Regarding `O=C(NCc1ccco1)c1cccc2c(-c3ccc(F)c(F)c3)coc12`, the “activation” value is inactive: 15.6%.

In the case of `Cc1c(/C=N\NC(=O)C2COc3ccccc3O2)c2ccccc2n1C` (stereo not given), the “activation” value is inactive: 14.8%.

As for `O=C(/C=C/c1cccc(F)c1)Nc1ccc(S(=O)(=O)Nc2ncccn2)cc1`, the “activation” value is inactive: 2.02%.

Consider `CCn1ncc(C2=NOC(C(=O)Nc3ccccc3C(=O)OC)C2)c1C` (stereo not given), for which the “activation” value is inactive: 6.52%.

For `Cc1cccc(NC(=O)COc2ccccc2)c1`, the “activation” value is inactive: -0.34%.

As to `COc1ccc(C2=NCCc3cc(OC)c(OC)cc32)cc1OC`, the “activation” value is inactive: 9.08%.

In the case of `CC(C)Cn1cnc2c(SCCc3ccccc3)nc(N)nc21`, the “activation” value is inactive: 2.22%.

For `CCc1ccc(OCC2c3cc(OC)c(OC)cc3CCN2C(C)=O)cc1` (stereo not given), the “activation” value is inactive: 9.92%.

In the case of `COc1cc(-c2cnc3c(NC=O)cc(-c4ccccc4Cl)cn23)cc(OC)c1OC`, the Potency was active: 5.8 µM.

`COCCN1CCn2c(nc3cc(NC(=O)Cn4nc(C)c5ccccc5c4=O)ccc32)C1`: the “activation” value was inactive: 2.07%.

Regarding `CCOC(=O)COc1ccc(/C=C2/SC(=Nc3ccccc3)N(Cc3cccnc3)C2=O)cc1OC`, the “activation” value was inactive: 21.1%.

Take `COc1cc2cc(C)c(SCC(=O)N3CCN(C(=O)c4ccco4)CC3)nc2cc1OC`: the “activation” value was inactive: 16.6%.

For `CCN(Cc1ccc(OC)c(F)c1)C(=O)c1oc2ccccc2c1COC`, the “activation” value was inactive: 19%.

As to `O=S(=O)(c1cccc(-c2nc3ccccc3s2)c1)N1CCCC1`, the “activation” value was inactive: 10%.

With `COCCCn1c(=O)c2sccc2n(Cc2ccccc2)c1=O`, the “activation” value was inactive: -0.164%.

Turning to `COc1ccc(C2c3ccc(O)cc3Oc3ncn4nc(-c5ccccn5)nc4c32)cc1OC` (stereo not given), the “activation” value was inactive: 12.7%.

On to `CC(C)NC(=O)NC(=O)COC(=O)C1(C)CC1(Cl)Cl` (stereo not given), for which the “activation” value is inactive: -0.221%.

For `O=C1[C@H](CC[C@H](O)c2ccc(F)cc2)[C@@H](c2ccc(O)cc2)N1c1ccc(F)cc1`, the “activation” value was inactive: -0.287%.

As for `COC(=O)Nc1nc(-c2ccccc2)c(C(=O)c2ccccc2)s1`, the “activation” value is inactive: 23.9%.

On to `COCCNC(=O)c1ccc2c(c1)ncn2-c1ccc(C)c(Cl)c1`, for which the “activation” value was inactive: 4.58%.

For `CN(C)c1nc(OCCOC(=O)Nc2ccc(Cl)cc2Cl)nc(N(C)C)n1`, the “activation” value was inactive: 3.5%.

Take `CCCCN(CCCNC(=O)c1c(C)cc(=O)oc1C)c1ccccc1`: the “activation” value was inactive: -0.747%.

Regarding `Cc1ccc2c(CSc3nc4ccccc4c(=O)n3CCCO)cc(=O)oc2c1C`, the “activation” value was inactive: 24%.

Regarding `NC(c1ccccc1)c1ccncc1` (stereo not given), the “activation” value is inactive: -0.625%.

In the case of `CCOC(=O)c1ccc(NC(=S)N(CCCN2CCCCC2)Cc2ccco2)cc1`, the “activation” value is inactive: -0.472%.

Regarding `CCCCCCn1c(N2CCC(C)CC2)nc2c1c(=O)[nH]c(=O)n2C`, the “activation” value is inactive: 7.97%.

On to `CC1(C)NC(=O)N(CCCOc2ccc(Br)cc2Cl)C1=O`, for which the “activation” value was inactive: -0.718%.

As for `COc1ccc(/C=C(\C#N)C(=O)Nc2ccccn2)cc1`, the “activation” value is inactive: 0.0306%.

For the molecule `COc1cc2c(cc1OC)-c1cc(OCc3cccnc3)nc(=O)n1CC2`, the “activation” value is inactive: 14.3%.

Turning to `CCCCn1c(SCc2ccc(C(=O)OC)o2)nc2cc(S(N)(=O)=O)ccc21`, the “activation” value is inactive: 5.89%.
